# About 100 (0.036%) of roughly 280,000 compounds were called active. Inconclusive means that the source gave no clear call. Such entries were picked first, then a sample of the others. Calls come from the whole dose curve; as a rule, active = well fitted inhibition curve with a large enough effect in the signal ratio, with a control signal flat (not every such curve was filed as active); inconclusive = small, poorly fitted or top-dose-only effect, or effect the other way, or a change in a side signal; inactive = no such curve, though single readings can be large or run the other way; the % refers to the signal ratio. Where the call is inconclusive, the potency comes from a doubtful curve fit. A note “side channel” means that the fit belongs to a control or component signal, not to the main read-out.
# Biological target: Muscleblind-like protein 1 (Homo sapiens) (UniProt Q9NR56)
# UniProt Q9NR56, sequence (Q9NR56 whole entry, looked up): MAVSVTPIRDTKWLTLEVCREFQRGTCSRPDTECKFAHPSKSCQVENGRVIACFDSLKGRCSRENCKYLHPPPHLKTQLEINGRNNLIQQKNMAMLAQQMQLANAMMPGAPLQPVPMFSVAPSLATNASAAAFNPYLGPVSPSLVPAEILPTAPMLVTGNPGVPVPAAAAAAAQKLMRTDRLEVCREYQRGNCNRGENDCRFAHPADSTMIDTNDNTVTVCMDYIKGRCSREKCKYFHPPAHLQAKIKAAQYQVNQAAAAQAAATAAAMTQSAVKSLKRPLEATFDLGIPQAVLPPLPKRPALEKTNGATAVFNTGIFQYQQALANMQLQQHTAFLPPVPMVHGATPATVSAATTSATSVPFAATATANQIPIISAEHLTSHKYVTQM
# Assay: qHTS Assay for Inhibitors of MBNL1-poly(CUG) RNA binding
# Details: TR-FRET MBNL1-His/biotin-(CUG)12 binding, 665/545 ratio; activity change, negative = inhibition: at 57.5 µM (top of the series)
# In short: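 MBNL1-His + Biotin-(CUG)12, cpd titration 92 nM–58 uM; Tb anti-His Ab 0.055 ng/ul, SA-XL665 5 nM (final); 60 min RT; ratiometric 665/545 nm, Ex 340 nm; normalized to buffer and full-complex controls.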
# % is set by controls: 0 for no effect and ±100 for the full control effect; potency is the fitted concentration of half-maximal effect; tags give direction and shape of the fitted curve or compound fluorescence and quenching.
SMILES,Potency,"activity change, negative = inhibition"
Cc1c(NC(=O)CSC2=C(C#N)C(c3ccccc3F)CC(=O)N2)c(=O)n(-c2ccccc2)n1C (centres undefined),inactive,
COc1cc2c(cc1NC(=S)NC(=O)c1c(OC)cccc1OC)oc1ccccc12,"inconclusive: 0.1 µM [fluorescent, side channel, full curve]",
COc1ccc(NC(=O)CCNS(=O)(=O)c2cccc3nsnc23)c(OC)c1,"inconclusive: 14.1 µM [quencher, side channel, partial curve]",
O=C(CNC(=O)c1ccc([N+](=O)[O-])cc1)c1ccccc1,"inconclusive: 8.91 µM [quencher, side channel, partial curve]",
O=C1C(Cl)=C(Nc2ccccc2O)C(=O)N1c1ccccc1,"inconclusive: 31.6 µM [quencher, side channel, partial curve]",
O=C(/C=C/c1ccccc1)CC(O)(c1ccccc1)C(F)(F)C(F)F (centres undefined),inactive,
O=C(O)c1ccc(Nc2cnc3ccccc3n2)cc1,"inconclusive: 11.2 µM [quencher, side channel, partial curve]",
O=[N+]([O-])c1cnccc1Nc1ccc(Cl)cc1,"inconclusive: 11.2 µM [quencher, side channel, partial curve]",
O=C(O)c1ccc(N2CCc3ccccc32)c([N+](=O)[O-])c1,"inconclusive: 12.6 µM [quencher, side channel, partial curve]",
S=c1nc(Cc2ccccc2)[nH]c2ccccc12,"inconclusive: 3.98 µM [fluorescent, side channel, full curve]",
CCOc1cccc(CNCCO)c1OCc1ccc(Cl)cc1,"inconclusive: 11.2 µM [fluorescent, side channel, partial curve, poor fit]",
CCn1c(SC(C)C)nnc1-c1cc(-c2ccccc2)sc1N,inactive,
CCOc1cc(/C=C2\NC(=O)NC2=O)cc([N+](=O)[O-])c1O,"inconclusive: 14.1 µM [quencher, side channel, partial curve]",
COc1ccccc1CNc1nc2nc(C)c(Cl)c(=O)n2[nH]1,"inconclusive: 8.91 µM [quencher, side channel, single point]",
Cc1ccc(NC(=O)CNCCCN2CCOCC2)cc1S(=O)(=O)N1CCCCC1,"inconclusive: 158 µM [inhibitor, single point]",
CN(C)c1ccc(/C=N/N=C2/NC(=O)/C(=C/c3ccc([N+](=O)[O-])cc3)S2)cc1,"inconclusive: 12.6 µM [quencher, side channel, partial curve]",
CCOC(=O)/C(C#N)=C1/C=CN(C)C=N1,"inconclusive: 25.1 µM [quencher, side channel, single point]",
Cc1ccccc1OCc1nc2ccccc2c(=O)n1/N=C/c1cn[nH]c1-c1ccc(Br)cc1,"inconclusive: 1.78 µM [fluorescent, side channel, partial curve]",
COc1ccc(C(=O)c2c(C)oc3cc([N+](=O)[O-])c(O)c([N+](=O)[O-])c23)cc1,"inconclusive: 35.5 µM [quencher, side channel, single point]",
COc1cccc(SCC2(O)CCN(C(=O)c3ccc(Cl)cc3)CC2)c1,inactive,

SMILES,Potency,"activity change, negative = inhibition"
COc1cc(/C=C/C(=O)OCC(=O)NC(=O)NC(C)(C)C)ccc1OCC#N,"inconclusive: 17.8 µM [quencher, side channel, partial curve]",
COCc1cc(C)nc(Nc2ccc(C)c(C)c2)c1C#N,"inconclusive: 28.2 µM [fluorescent, side channel, partial curve]",
C=CCn1c(=NC(=O)c2ccco2)sc2cc(C(=O)OCC)ccc21,inactive,
CN(C)c1cc(-c2ccc([N+](=O)[O-])cc2)oc(=O)c1Cl,"inconclusive: 2 µM [quencher, side channel, full curve]",
N/C(=N\OC(=O)c1ccccc1F)c1cccc([N+](=O)[O-])c1,"inconclusive: 22.4 µM [quencher, side channel, partial curve]",
COC(=O)c1c(-c2ccc(C)cc2)csc1NC(=O)c1c(-c2ccccc2)noc1C,inactive,
COc1ccc(N2CCN(CCCn3c(=S)[nH]c4ncccc4c3=O)CC2)cc1,inactive,
CC1CN(S(=O)(=O)c2cccc(-c3cn4cccnc4n3)c2)CC(C)O1 (centres undefined),"inconclusive: 28.2 µM [quencher, side channel, single point]",
Cc1ccc(NC(=O)c2ccc(Nc3c([N+](=O)[O-])cc([N+](=O)[O-])cc3[N+](=O)[O-])cc2)cc1,"inconclusive: 14.1 µM [quencher, side channel, partial curve]",
COc1ccc(C(=O)O)cc1NC(=S)NC(=O)Cc1ccc(Cl)cc1,inactive,
Cc1c(Cl)c([N+](=O)[O-])nn1CCCC(=O)Nc1c(Cl)cccc1Cl,,inconclusive: 28% [phenotype inactive]
COc1ccc(-c2ccc(-c3noc(-c4cccc(OC)c4)n3)c(OC)n2)cc1,inactive,
CN(C)S(=O)(=O)c1cccc(NC(=O)COC(=O)CNC(=O)c2cccc([N+](=O)[O-])c2)c1,"inconclusive: 10 µM [quencher, side channel, partial curve]",
O=C1CCCC/C1=C/Nc1ccc2c(c1)OCO2,"inconclusive: 17.8 µM [quencher, side channel, single point]",
O=[N+]([O-])c1cccc(S(=O)(=O)Nc2ccc(S(=O)(=O)NCC3CCCO3)cc2)c1 (centres undefined),"inconclusive: 35.5 µM [quencher, side channel, single point]",
COc1ccc(/C=N/NC(=O)c2ccc3nc[nH]c3c2)cc1OC,"inconclusive: 31.6 µM [quencher, side channel, single point]",
CCNS(=O)(=O)c1ccc(NC(=O)Cn2cc([N+](=O)[O-])cn2)cc1,inactive,
Cc1ccc(/C=C/C(=O)O)cc1S(=O)(=O)N1CCc2ccccc21,inactive,
C(=N\NCc1ccccc1)/c1ccc2ncccc2c1,"inconclusive: 35.5 µM [quencher, side channel, single point]",

# Source: PubChem BioAssay AID2675 (National Center for Advancing Translational Sciences (NCATS), 2010)
